# Measurements as given in PubChem BioAssay AID651820 (National Center for Advancing Translational Sciences (NCATS), 2012).
# The whole screen tested about 340,000 compounds, of which about 12,000 (3.5%) were called active. This list was built around the results that the source calls inconclusive (neither active nor inactive); the mix of calls is not that of the screen. Calls follow the shape of the dose curve; as a rule, active = well fitted inhibition curve with a large enough effect; inconclusive = small, poorly fitted or top-dose-only effect, or another doubt; inactive = no such curve, though single readings can be large or run the other way. No potency is given beside an inconclusive call; the fits are too rough.
# Test: qHTS Assay for Inhibitors of Hepatitis C Virus (HCV)
# Settings: Huh7.5.1 HCVcc-Cre (HCVcc is cell-culture hepatitis C virus) infection, luciferase reporter, 44 h; activity change, negative = inhibition: at 41.8 µM (top of the series) unless noted
# Procedure, shortened: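 Cells seeded at 1,000/well and cultured 4 h, then compounds added followed by HCVcc-Cre virus (~0.5 moi). After 44 h further culture, luciferase substrate was added, plates held 15 min at room temperature, and luminescence read for 15 sec.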
# % is scaled to controls: 0 for no effect and ±100 for the full control effect; potency is read from the fitted curve at half-maximal effect; tags tell the direction and shape of the fitted curve.
SMILES,Potency,"activity change, negative = inhibition"
Cc1ccc2cc(C#N)c(N3CCN(C(=O)c4cccs4)CC3)nc2c1,"inconclusive [inhibitor, partial curve]",–
Brc1ccc2ncnc(NCc3cccnc3)c2c1,"inconclusive [inhibitor, partial curve]",–
O=C(Nc1ncc(Cc2cccc(Cl)c2)s1)c1ccc([N+](=O)[O-])cc1,"inconclusive [inhibitor, single point]",–
O=C(/C=C/c1ccccc1O)c1ccc(Cl)cc1,–,inactive: -3.21%
O=C1c2ccccc2C(=O)N1CCn1c(=O)oc2ccccc21,–,inactive: 21.1%
CC(=O)Nc1cccc(C(=O)OC(C(=O)c2ccc(C)c(C)c2)c2ccccc2)c1 (configuration not stated),"inconclusive [inhibitor, single point]",–
CN1CCN(C(=S)SCc2nc(N)nc(Nc3ccc(F)cc3)n2)CC1,–,inactive: -2.89%
CC1Sc2ccc(C(=O)Nc3ncccc3O)cc2NC1=O (configuration not stated),–,inactive: -23.4%
COc1ccc(NS(=O)(=O)c2cc(NC(=O)c3ccc(C)o3)ccc2N2CCCCC2)cc1,"inconclusive [inhibitor, partial curve]",–
O=c1sc2ccccc2n1CCCOc1ccccc1,"inconclusive [inhibitor, single point]",–
COc1cc(C2C3=C(CCCC3=O)Nc3[nH]n(-c4ccccc4)c(=O)c32)cc(OC)c1OC (configuration not stated),–,inactive: 11.3%
Cc1ccc(C(=O)C(C)OC(=O)CCN=C2NS(=O)(=O)c3ccccc32)cc1 (configuration not stated),"inconclusive [inhibitor, single point]",–
CN(Cc1ccccc1)C(=O)CSc1nc2ccccc2c(=O)n1Cc1ccco1,"inconclusive [inhibitor, single point]",–
COc1cccc(NC(=O)CNC(=O)c2ccc(C)o2)c1,"inconclusive [inhibitor, single point]",–
CN(C)c1cccc(C(=O)NCCCSc2ccccc2)c1,"inconclusive [inhibitor, single point]",–
CN(C1CCCCC1)S(=O)(=O)c1ccc2c(c1)CCC(=O)N2,–,inactive: 17.7%
CCOc1ccccc1C(=O)NCC(=O)NC(C)c1ccc(-n2ccnc2)cc1 (configuration not stated),–,inconclusive: -65.1% [inhibitor]
Cc1cc(C(=O)N/N=C/c2c3ccccc3cc3ccccc23)n[nH]1,"inconclusive [inhibitor, partial curve, poor fit]",–
O=C(NCCN1CCN(Cc2ccccc2)CC1)C1c2ccccc2C(=O)N2CCc3ccccc3C12 (configuration not stated),–,inactive: -0.68%
Cn1c(=O)c2c(nc(CN3CCN(C(=O)c4ccco4)CC3)n2Cc2ccc(F)cc2)n(C)c1=O,"inconclusive [inhibitor, partial curve]",–
CCCC(=O)Nc1nnc(-c2ccc3c(c2)OCCO3)o1,–,inactive: 5.77%
O=C(NNC(=S)NC(=O)c1ccco1)c1ccc(F)cc1,–,inactive: 4.86%
COc1ccc(C)cc1NC(=O)CSc1nc(=O)n(CCCN2CCOCC2)c2c1CCCC2,"inconclusive [inhibitor, single point]",–
CCOC(CCNC(=O)CCC(=O)Nc1ccc2nc(N3CCN(C)CC3)cc(C)c2c1)OCC,–,inactive: -6.67%

SMILES,Potency,"activity change, negative = inhibition"
CC(C)c1ccc(O)c(NC(=S)NC(=O)c2ccc3c(c2)OCO3)c1,"inconclusive [inhibitor, single point]",–
CN(C)N1C(N)=C(C#N)C(c2cccc3ccccc23)C2=C1CC(c1ccccc1)CC2=O (configuration not stated),"inconclusive [inhibitor, single point]",–
COc1ccc(Cn2c(CCC(=O)N3CCN(c4ccccn4)CC3)nc3ncccc3c2=O)cc1,–,inactive: 13%
CC1CCCC/C1=N\NC(=S)Nc1cccnc1 (configuration not stated),"inconclusive [inhibitor, single point]",–
O=C1c2ccccc2C(Nc2ccc(S(=O)(=O)N3CCOCC3)cc2)N1Cc1ccco1 (configuration not stated),–,inactive: 0.511%
O=C(CSc1nc(-c2ccco2)cc(C(F)(F)F)n1)Nc1cccnc1,"inconclusive [inhibitor, partial curve]",–
O=C(NCCC1=CCCCC1)c1ccc([N+](=O)[O-])cc1,–,inactive: 6.87%
COc1cccc(NC(=O)OCCN2CCN(Cc3ccccc3)CCC2=O)c1,"inconclusive [inhibitor, partial curve]",–
N#Cc1c(/N=C/c2cc3ccccc3s2)sc2c1CCC2,–,inactive: 12.1%
CN(C(=O)c1ccc(OC2CCN(CCc3ccccc3)CC2)cc1)C1CCCCC1,"inconclusive [inhibitor, single point]",–
COc1ccccc1CN(Cc1cc2cc3c(cc2[nH]c1=O)OCCO3)Cc1nnnn1Cc1ccco1,–,inactive: 3.33%
CC(C)c1ccc(/C=C2\SC(=O)N(CC(=O)NC3CCS(=O)(=O)C3)C2=O)cc1 (configuration not stated),"inconclusive [inhibitor, single point]",–
CC(C)(C)c1cc(C(=O)NNC(=O)Nc2cccc(Cl)c2)n(Cc2ccccc2)n1,"inconclusive [inhibitor, single point]",–
CCCCCC(=O)OC(CN1CCCCC1)CN1CCCC1=O (configuration not stated),–,inactive: 0.241%
Cc1ccc(CS(=O)(=O)Cc2ccc(C(=O)NCCCN3CC(C)CC(C)C3)o2)cc1 (configuration not stated),–,inactive: -11.9%
CCOc1ccc(OCCSc2ccc(S(=O)(=O)N3CCN(C)CC3)cn2)cc1,active: 11.2 µM,–
Cc1ccc(S(=O)(=O)N(C)C)cc1NC(=O)CSc1nc2ncc(Cl)cc2[nH]1,active: 2.51 µM,–
Clc1ccc(-c2noc(CSc3nnc(-c4ccncc4)n3-c3ccccc3)n2)cc1,active: 3.98 µM,–
O=S1(=O)CCC(NC(=S)SCCOc2ccccc2)C1 (configuration not stated),"inconclusive [inhibitor, single point]",–
O=C(Nc1nccs1)c1cc(S(=O)(=O)N2CCCCC2)ccc1Cl,–,inactive: 7.22%
O=C(c1cccc(C(=O)N2CCN(Cc3ccccc3)CC2)c1)N1CCN(Cc2ccccc2)CC1,"inconclusive [inhibitor, full curve]",–
COc1ccccc1C(CNC(=O)CNC(=O)c1ccc(Cl)c(Cl)c1)N1CCCC1 (configuration not stated),"inconclusive [inhibitor, single point]",–
O=C(CCc1ccccc1)NCCS(=O)(=O)N1CCN(c2ccccc2)CC1,"inconclusive [inhibitor, full curve, poor fit]",–
